# Laboratory results taken from the supplement of paper PMC11417369.
# ± gives the standard deviation of the averaged measurements. The list shows a part of the results.
# Test system: PfAP2-EXP AP2 domain (GST-tagged)
# Experiment: gcPBM binding intensity (ln(normalized median fluorescence intensity)); higher = stronger DNA binding
# How it was run: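 Alexa488 anti-GST antibody, scanned at 488 nm, detected GST-tagged P. falciparum DNA-binding domains that had been expressed in E. coli and incubated for 1 h on an Agilent 4 × 180k array. The array carried primer-extended double-stranded 36-bp intergenic genomic probes and negative controls. Binding intensity is the highest Masliner-normalised natural-log median intensity across replicate spots of either orientation of each probe.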
row,Sequence,gcPBM binding intensity (ln)
1,AATATTTATAAATTTACACACACACCCGTGAACATA [CACACA_site1910],8.76 ± 0.37
2,TTATCATTTTAAATCACACACATATATAAATATGTA [CACACA_site7359],8.28 ± 0.35
3,ATACGATTGCAGTCAAAAAGGAAAATATAAAAAAAG [XGTACX_negctrl_site124],8.6 ± 0.6
4,TTAATAACGTAATGTAAATGTTTCATACCCTTTTTT [CACACA_negctrl_site988],8.36 ± 0.43
5,TTTTTTTTTCTGTATACACACAAAATTTATTTTTTA [CACACA_site2873],8.67 ± 0.41
6,ATATATATGTATGTATATATATATATATATGTTTGA [CACACA_negctrl_site107],8.48 ± 0.26
7,AAAGAAGGGGGGGGAAAAAAAAATAAAAGAGGAAAA [XGTACX_negctrl_site92],9.36 ± 0.042
8,ATAAAATAAAAACATGCACACTTTATTTTTTTTAAG [CACACA_site5545],8.59 ± 0.18
9,GATAATAATAAGTGTACACATATATTTAGAAGAGTA [CACACA_site4245],8.81 ± 0.25
10,AAAATGTATATTGGCGCATGTAAACAAATACTATAC [TGCATGCA_site385],9.2 ± 0.27
11,TCAAAATGTGACATAAAAGAAAAAAAAAAAAAAAAA [CACACA_negctrl_site1092],8.03 ± 0.47
12,TGGGGTATTAAAAAAACACACAAAAAAAATATAAAG [CACACA_site1915],8.55 ± 0.58
13,TTTTCTTTTTTCTTTTTAACTCTTACATAATAGGTG [CACACA_negctrl_site642],8.54 ± 0.45
14,AAAAAAAAAAAAATTACACACATACCTATAAGAATA [CACACA_site7097],8.36 ± 0.53
15,TAAAATGAATAAAATTGTACTTAATAATATTTTAAA [XGTACX_site5532],7.96 ± 0.35
16,AATATATGTTAAAATGGTACACAATTATTATATATT [XGTACX_site6407],8.46 ± 0.4
17,AAAAAAAAAAAAAAGAGTACTTTTTTCACATTCATC [XGTACX_site8795],8.38 ± 0.18
18,TTGTTTCAAAATTAAACACACACAAAAAAAAAAAAA [CACACA_site8856],8.31 ± 0.47
19,TAAATCAAAAACAACAAGTCATATTAAAGATGGTAT [CACACA_negctrl_site1321],8.73 ± 0.52
20,CTTATAATATTACGGGTGCTATAAATACATTATATT,8.81 ± 0.16
21,AAGGAAAACAGTAGGTGTACCAAACGTCCTAGGAAC [XGTACX_site3659],9.05 ± 0.47
22,TATATTTATATCATCACACATTTTTTTTTTCTTTTT [CACACA_site6150],8.41 ± 0.53
23,TAATATATAAATATATGTACATAATTAATAGGATAT [XGTACX_site237],8.76 ± 0.38

row,Sequence,gcPBM binding intensity (ln)
1,GGATATATAAGATACACACACAAATTAAATATAAAA [CACACA_site7333],8.65 ± 0.49
2,TATTCCTAATTTAAAAGTACATATATATATATATAT [XGTACX_site3008],10.2 ± 0.54
3,TTTTTTAAATTTAAAGTGCATTATTATATATTTGTA,8.65 ± 0.15
4,CCAGTGTGCACCTTGCGTACATATTAAATTAATTAA [XGTACX_site3729],9.06 ± 0.23
5,AAAAAAGAAATAAGGATACACACTATTGATAAAAGT [CACACA_site272],8.84 ± 0.44
6,GGATAAGAAAAGAAGTGTACATATATATATATATAT [XGTACX_site8290],10.2 ± 0.35
7,TTCTTTTAAAAATATATTTTAAGAAAATTTAATTTA [GTGCAC_negctrl_site237],7.98 ± 0.4
8,TTTATTTTTTGAAACACACACAAAAAAAATGATACA [CACACA_site1881],8.76 ± 0.49
9,ATAAAGCACACCGACACACACATATATATATATATA [CACACA_site1047],10.1 ± 0.46
10,AAAAAAAAAATATATATATATATATATATATATATA [GTGCAC_negctrl_site467],9.95 ± 0.53
11,CAAAAAAAAAAACGGGTGCTAAATTTTATTTTTTAT,8.57 ± 0.33
12,TATCATGGTTCGGATTGTACATATATGAATTTTTTT [XGTACX_site7478],8.55 ± 0.44
13,TATACAATATTTATAACACACATATTTATATAAACT [CACACA_site6932],8.39 ± 0.35
14,ACTAAACAATATGTATGTACATATTTTACATATAAT [XGTACX_site3318],8.54 ± 0.27
15,AGAACATTTTCTCAGTGTACTTATATATTTGACATA [XGTACX_site6541],8.62 ± 0.32
16,ATATATCATGAACCTTGTACGTATATATATATATAT [XGTACX_site239],10.2 ± 0.23
17,ACTTCCTATATTTATGCATGCATTTTATTAAAAAAT [TGCATGCA_site747],9.92 ± 0.16
18,ATTTATTTATTTATATGTACATATATATATATATAT [XGTACX_site339],10.1 ± 0.3
19,GATGGAATCTAATTTACATGCAGTGATATAATAAAT [TGCATGCA_site1031],9.12 ± 0.27
20,TAATAATAACCGTTATGTACACAATTTTGTGAACAT [XGTACX_site8053],8.35 ± 0.18
21,TACAGACAGAAACACACACACACGCATAAAAAAAAA [CACACA_site1514],8.7 ± 0.52
22,GTTAAGTGTATATATACACACATATGTAATACATGA [CACACA_site3048],8.92 ± 0.42
23,AATATTGAAATAACGCGTACAAAAAAAAGTTATATT [XGTACX_site6559],8.84 ± 0.63

row,Sequence,gcPBM binding intensity (ln)
1,TAAAAATATATGTATACACACATATATATATATATA [CACACA_site3951],10.1 ± 0.43
2,AAAAAAAGTGACTCCTTACACACTTTACATAATTTA [CACACA_site820],8.34 ± 0.45
3,ATATGTAGAATAAAAAAAAAAAAAAAAAAAAAAAAT [CACACA_negctrl_site621],8.16 ± 0.47
4,TAATTAAAATTATATATTAGAAAAAACATATAAAAC [CACACA_negctrl_site190],8.6 ± 0.42
5,ATGTTATATTATAAAAGTACATTTTATTTTTATTTA [XGTACX_site4365],8.65 ± 0.45
6,TTAATTTATAAAAACACACACAGGTAAAAAGGTGCA [CACACA_site1177],9.2 ± 0.15
7,ATTTCCTTTTTCTGTTGTACTCATAAAATAATATGT [XGTACX_site7234],9.11 ± 0.43
8,TAACAAAAAGCACTTAGTACATATATATATATATAT [XGTACX_site1099],10.1 ± 0.49
9,AATATAACTTTTTGCACACTTAATTTTTTTTTTTAA [CACACA_site3365],8.79 ± 0.3
10,AGGTAATATACTAAATGTACAGAAAAACGAATTTTT [XGTACX_site2977],8.59 ± 0.37
11,TTTCTTTTTAAATATATACACACCGGGTGTACATAT [CACACA_site3345],8.47 ± 0.33
12,TATATTTATTATAACACACACATATTTATATTATAG [CACACA_site6628],8.33 ± 0.42
13,AATGAAATAATACAATGTACGTTAAAAAAAAATAAA [XGTACX_site7928],8.74 ± 0.47
14,GTATTATTTTATGATGCATGTGTATTTCATATATGC [TGCATGCA_site660],8.66 ± 0.26
15,TAATATCAAACCTATAGTACATAAGGTATAAAAAAG [XGTACX_site3533],8.64 ± 0.42
16,TTTTTTTTTCCTTCTTGTACATATTATATATACATA [XGTACX_site5988],8.84 ± 0.43
17,TGGAACGTAATAAAATGTACATACGTTTTTCATATG [XGTACX_site6229],8.61 ± 0.45
18,GACAAATTAATCGATTGTACACAATTTGTTTCGTTG [XGTACX_site35],8.82 ± 0.44
19,AACACATACATATATGCACACATTTTATTCCATTAT [CACACA_site2834],9.04 ± 0.4
20,TTTTTTTTTTTTTGTACATGCAAATATTATGAACAC [TGCATGCA_site571],8.77 ± 0.17
21,TTCACATATATATAACGTACATTATTATTATTCTGA [XGTACX_site6006],8.53 ± 0.36
22,TTAGAAGGGATTAAAGTGCAAAATAGGATTAGAGTA,9.14 ± 0.33
23,TACAAGTATAAATAAGCACACATGTGTATATGTACA [CACACA_site7911],8.89 ± 0.37

row,Sequence,gcPBM binding intensity (ln)
1,TCTTATTTAATTAAACAAAAGAAAAAGAAAGAAAAG [CACACA_negctrl_site1569],8.57 ± 0.61
2,TTTTTTTTTTTTTTAACACACATATAAATATTTTTC [CACACA_site6985],8.38 ± 0.51
3,AAATGGAGTTAATATTGTACATATATATATATATAT [XGTACX_site5452],10.3 ± 0.18
4,TGCATTTTACTTGTTACACACATATAAAATTAACCA [CACACA_site7387],8.64 ± 0.3
5,ATTCTTGTTATATAAGGTACAGAACAAAATATAAAA [XGTACX_site5510],8.72 ± 0.38
6,TTTGGGATAAAACAAAGTACTAACAAAATATATAAT [XGTACX_site8240],8.85 ± 0.47
7,AAAGTTTTAAGAAAATGTACATAAGTATACATATAT [XGTACX_site1293],8.68 ± 0.41
8,TTTTTCTATTCCATTCAACACACAAAAATGTATGCT [CACACA_site8268],8.59 ± 0.38
9,TTTTCATATATTTATTGTACATATTACATATATAAT [XGTACX_site2425],8.71 ± 0.23
10,TTTTATAAATATTTTTGTACACATTTAAATATTATT [XGTACX_site4973],8.63 ± 0.45
11,TTTTTTTAATAAAAGTGTACCAAATTATATACACAT [XGTACX_site6811],8.37 ± 0.42
12,AGAGAGAACGGTATAACATGCAATAAATTTCAGAAG [TGCATGCA_site423],9.14 ± 0.38
13,ATTTATAAATCAAAGTGTACATATGTTTTATTTTTT [XGTACX_site804],8.85 ± 0.32
14,ATCGGTAATATTAACACACACATTTATTTATATTTA [CACACA_site6638],8.7 ± 0.49
15,TTTTATTATATGGAGGTGCATATATAATAATATAAT [GTGCAC_site9477],8.87 ± 0.16
16,ATGTATGTAATAAAAAGTACATATGTTCATAATAAA [XGTACX_site842],8.49 ± 0.13
17,TTCTTTTTAAATATACTAATTATGTATAAAACAGAA [GTGCAC_negctrl_site131],8.23 ± 0.29
18,CAAATAAAAATAAGGAGTACAATTAAAAAAGGAAGG [XGTACX_site4366],8.96 ± 0.39
19,GAAAAGAAAAATAAACGTACATAAATATTAACATTA [XGTACX_site8213],8.46 ± 0.33
20,AAAATAAAAAAGTGTACACATATTAAAATGTATTTA [CACACA_site4424],8.63 ± 0.26
